Experimental data reported in PubChem BioAssay AID504332 (National Center for Advancing Translational Sciences (NCATS), 2011).
In all, about 350,000 compounds went through this assay and about 31,000 (8.9%) were called active. This list was built around the results that the source calls inconclusive (neither active nor inactive); the mix of calls is not that of the screen. Calls come from the whole dose curve; as a rule, active = well fitted inhibition curve with a large enough effect; inconclusive = small, poorly fitted or top-dose-only effect; inactive = no such curve, though single readings can be large or run the other way. Potencies beside an inconclusive call are fits to weak or partial responses and may not hold up.

The compounds below were run against Histone-lysine N-methyltransferase EHMT2 (Homo sapiens) (UniProt Q96KQ7) (assay: qHTS Assay for Inhibitors of Histone Lysine Methyltransferase G9a). Details: G9a H3K9 monomethylation, AlphaScreen, 2 h; activity, negative = inhibition: at 59 µM (top of the series) unless noted.
Text: Methylated lysines, on the N-terminal tails of histone proteins serve as epigenetic markers to recruit factors that can then modify local chromatin structure to lead to functional consequences. G9a and other members of the SUV39 family of the SET domain-containing superfamily of histone lysine methyltransferases (HMT) have been identified to specifically methylate Lys9 of histone H3 (H3K9). G9a catalyzes the mono- and di-methylation of H3K9 in mammalian euchromatic regions, where the resulting H3K9me2 is indicative of transcriptional repression. […] The inhibition of G9a will result in transcriptional activation and work synergistically with DNA methyltransferase and histone deacetylase inhibitors, to kill cancer cells. This qHTS assay for identification of G9a inhibitors is a chemiluminescence based AlphaScreen (PerkinElmer). Methylation of biotinylated-histone peptide is measured through specific antibody-based detection, in conjunction with streptavidin-coated donor and anti-IgG antibody-coated acceptor beads. The method is particularly well suited for detection of inhibitors acting by the desired histone peptide competitive mechanism and is applicable to testing other HMTs. Although AlphaScreen has significant advantages with its utility in a variety of epigenetic target assays, the primary screening data provided in this deposition should be used with caution due to the prevalence of screening artifacts. An AlphaScreen counterscreen is highly recommended to be run against any putative actives to eliminate non specific artifacts. Alternatively, one can use other AlphaScreen assays in PubChem to filter out promiscuous hits. Quinn et al. A chemiluminescence-based method for identification of histone lysine methyltransferase inhibitors. Mol Biosyst 6(5): 782-8. 2010. PMID: 20567762 [2] Baell,Holloway. New substructure filters for removal of pan assay interference compounds (PAINS) from screening libraries and for their exclusion in bioassays. J Med Chem. 53(7):2719-40. 2010. PMID: 20131845 NIH Molecular Libraries Probe Production Network [MLPCN] NIH Chemical Genomics Center [NCGC] Structural Genomics Consortium (SGC) NIH Grant: 5U54 MH084681-02
To each well of a 1,536w plate, 2ul of HMT enzyme (final 20nM) were added, using a nanoliter dispenser. The G9a- and GLP-inhibitor BIX-01294 (CID: 25150857) are used as an intraplate control, with a 16-point titration in duplicate. A Kalypsys pin-tool transferred 23nl of library compound solution in DMSO to each well. Following a 15 min incubation of enzyme with compounds at room temperature, 1ul mixture of b-H3K9 peptide substrate (final 500nM) and SAM cofactor (final 20uM) were added. Reactions were allowed to proceed at room temperature for 2 hours. Methylated b-H3K9 peptide product was detected with 0.5 ug/mL rabbit polyclonal anti-monomethyl histone H3K9 antibody (Abcam Inc., Cambridge, MA) and 20 ug/mL each streptavidin-coated donor and anti-rabbit IgG acceptor AlphaScreen beads. Antibody and beads were added in a 1ul dispense, for a final volume of 4ul, and plates were incubated, protected from the light, for 10 min at room temperature. Microplates were then read on an EnVision multilabel plate reader using the 1,536 plate HTS AlphaScreen aperture (excitation time 80 ms, measurement time 240 ms).
% is set by controls: 0 for no effect and ±100 for the full control effect; potency is the fitted concentration of half-maximal effect; tags give direction and shape of the fitted curve.
Note: nearly all actives have a fitted effect of over 75% in size.

UniProt Q96KQ7, sequence (Q96KQ7 whole entry, looked up, the tested form may be a part): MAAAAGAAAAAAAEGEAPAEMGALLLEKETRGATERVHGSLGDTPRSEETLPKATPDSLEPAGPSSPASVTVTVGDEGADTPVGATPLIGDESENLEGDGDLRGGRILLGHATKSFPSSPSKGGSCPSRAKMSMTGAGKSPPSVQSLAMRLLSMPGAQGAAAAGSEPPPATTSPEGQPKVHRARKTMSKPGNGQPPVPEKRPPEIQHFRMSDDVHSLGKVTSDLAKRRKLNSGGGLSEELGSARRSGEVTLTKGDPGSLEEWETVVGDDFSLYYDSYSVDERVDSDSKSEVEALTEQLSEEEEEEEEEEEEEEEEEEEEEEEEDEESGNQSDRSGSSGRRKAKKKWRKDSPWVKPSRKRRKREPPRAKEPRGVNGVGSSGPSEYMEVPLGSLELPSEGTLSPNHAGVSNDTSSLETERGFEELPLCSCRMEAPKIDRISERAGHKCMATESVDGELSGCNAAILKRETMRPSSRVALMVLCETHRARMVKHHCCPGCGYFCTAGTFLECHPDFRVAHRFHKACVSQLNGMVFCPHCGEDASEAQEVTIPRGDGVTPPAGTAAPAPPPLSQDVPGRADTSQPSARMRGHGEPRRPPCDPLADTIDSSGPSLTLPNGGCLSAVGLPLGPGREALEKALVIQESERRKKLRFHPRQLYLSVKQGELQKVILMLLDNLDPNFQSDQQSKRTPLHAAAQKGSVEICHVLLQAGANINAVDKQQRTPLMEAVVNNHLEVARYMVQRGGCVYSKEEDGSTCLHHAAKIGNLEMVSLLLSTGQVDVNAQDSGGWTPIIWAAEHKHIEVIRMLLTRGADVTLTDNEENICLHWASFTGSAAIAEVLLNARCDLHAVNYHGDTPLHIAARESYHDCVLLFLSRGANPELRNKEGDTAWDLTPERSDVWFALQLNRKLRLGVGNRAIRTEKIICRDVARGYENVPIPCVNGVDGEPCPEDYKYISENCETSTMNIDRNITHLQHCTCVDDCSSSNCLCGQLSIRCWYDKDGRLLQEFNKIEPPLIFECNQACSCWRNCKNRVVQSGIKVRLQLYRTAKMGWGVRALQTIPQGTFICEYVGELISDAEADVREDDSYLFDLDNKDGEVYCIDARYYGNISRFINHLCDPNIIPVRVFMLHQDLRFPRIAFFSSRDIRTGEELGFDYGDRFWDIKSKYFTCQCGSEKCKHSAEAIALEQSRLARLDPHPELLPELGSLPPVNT

Row | SMILES | Potency | activity, negative = inhibition
1 | O=C(Cn1nnc(N2CCCCC2)n1)c1ccc(Cl)c(Cl)c1 | inconclusive: 39.8 µM [inhibitor, single point] | –
2 | Cc1cc(-c2ccc(S(=O)(=O)Nc3ccc(C#N)cc3)s2)on1 | inconclusive: 79.4 µM [inhibitor, partial curve, poor fit] | –
3 | CC(C)N1CCC(=NNc2ccc([N+](=O)[O-])cc2S(=O)(=O)N2CCOCC2)CC1 | active: 15.8 µM | –
4 | C1=C(c2cccc3ccccc23)N2CCN=C2S1 | inconclusive: 0.708 µM [inhibitor, full curve, poor fit] | –
5 | COc1ccc(C(=O)Nc2ccc(OC)c([N+](=O)[O-])c2)cc1Br | inconclusive: 10 µM [inhibitor, partial curve, poor fit] | –
6 | Cc1c(C(=O)Nc2ccc(F)c(Cl)c2)sc2nc3n(c(=O)c12)CCC3 | – | inactive: -1.36%
7 | Cc1ccc(SSc2cc(C)ccc2N)c(N)c1 | – | inconclusive: -125% [inhibitor] [at 2.33 µM]
8 | O=[N+]([O-])c1cc(C(F)(F)F)ccc1NCCCCNS(=O)(=O)c1ccc(Cl)cc1 | inconclusive: 20 µM [inhibitor, single point] | –
9 | CCC(=O)NCCN1CCN(C(=O)CC)CC1 | – | inactive: 16.1%
10 | CCOC(=O)c1ccc(S(=O)(=O)NCCN2CCOCC2)cc1 | inconclusive: 44.7 µM [inhibitor, partial curve, poor fit] | –
11 | O=[N+]([O-])c1ccc(/C=N/n2cn[nH]c2=S)cc1 | active: 7.94 µM | –
12 | Cc1ccc(-n2c(CCc3ccccc3)n[nH]c2=S)cc1C | active: 2 µM | –
13 | CCC(=O)c1cn(CC(=O)OC)c2ccccc12 | – | inconclusive: -78.6% [inhibitor]
14 | COc1ccc(/C=N/Nc2ccc([N+](=O)[O-])cc2)cc1Cn1cc([N+](=O)[O-])cn1 | inconclusive: 12.6 µM [inhibitor, partial curve, poor fit] | –
15 | C/C(=N\Nc1ncc(Cl)cc1Cl)c1ccc(N2CCOCC2)cc1 | active: 56.2 µM | –
16 | COC(=O)CNC(=O)CN1C(=O)N(c2cccc(Cl)c2)C(N(O)C(=O)Nc2cccc(Cl)c2)C1(C)C (centres undefined) | inconclusive: 2.51 µM [inhibitor, partial curve, poor fit] | –
17 | O=C(NCc1ccco1)Nc1cccs1 | inconclusive: 20 µM [inhibitor, full curve, poor fit] | –
18 | Cc1nc2ccc(C(=O)N3CCN(Cc4ccccc4)CC3)cc2[nH]1 | inconclusive: 0.794 µM [inhibitor, partial curve, poor fit] | –
19 | O=C(O)CC(NS(=O)(=O)Cc1ccccc1)c1cccc([N+](=O)[O-])c1 (centres undefined) | – | inactive: 12.2% [at 102 µM]
20 | COCCNCCCCOc1ccccc1-c1ccccc1 | active: 7.08 µM | –
21 | CC(C)CN(CCOc1cccc(N2C(=O)C3=C(CCCC3)C2=O)c1)CC(C)C | – | inactive: 8.03%
22 | CCc1nnc(NC(=O)C2CCN(C(=O)c3ccccc3C)CC2)s1 | inconclusive: 44.7 µM [inhibitor, partial curve, poor fit] | –

Row | SMILES | Potency | activity, negative = inhibition
23 | CCCCNc1oc(-c2ccc(OC)cc2)nc1S(=O)(=O)c1ccccc1 | active: 2.82 µM | –
24 | COc1ccc(CNC(=O)CN2C(=O)NC3(CCCc4sccc43)C2=O)cc1 (centres undefined) | inconclusive: 79.4 µM [inhibitor, single point] | –
25 | CCOCCCNC(=S)Nc1ccc2nc(N3CCN(CC)CC3)cc(C)c2c1 | active: 31.6 µM | –
26 | O=C(O)CCN1C(=O)/C(=C2\C(=O)N(Cc3ccccc3Cl)c3ccccc32)SC1=S | inconclusive: 3.55 µM [inhibitor, full curve, poor fit] | –
27 | CC(OC(=O)CC1CCCCC1)C(=O)Nc1cccc(C#N)c1 (centres undefined) | – | inactive: 9.58% [at 102 µM]
28 | COc1ccc2[nH]cc(CCNc3ncncc3-c3ccccc3C)c2c1 | – | inactive: 7.54% [at 0.501 µM]
29 | CCN(CC)CCn1c(=N)n(CC(=O)c2ccc(Br)s2)c2ccccc21 | inconclusive: 50.1 µM [inhibitor, partial curve] | –
30 | CCCCSCCCNC(=O)C1CCC(CNS(=O)(=O)c2ccc(NC(C)=O)cc2)CC1 (centres undefined) | – | inactive: 16.1% [at 102 µM]
31 | CCOC(=O)c1cc(S(=O)(=O)Nc2ccc(OC)cc2OC)cn1C | – | inactive: 27.1% [at 102 µM]
32 | NC(=O)c1ccc(NC(=O)CCCN2C(=O)NC3(CCCC3)C2=O)cc1 | inconclusive: 6.31 µM [inhibitor, single point] | –
33 | COc1cc(/C=N/NC(=O)C(=O)NCc2ccco2)cc(Cl)c1O | – | inactive: 14%
34 | CCOC(=O)c1c(NC(=O)COc2ccccc2OCC)sc2c1CC(C)(C)NC2(C)C | inconclusive: 56.2 µM [inhibitor, partial curve, poor fit] | –
35 | Cc1ccc(OCCCC(=O)NC2CCCCC2)cc1 | – | inactive: -42.8% [at 102 µM]
36 | O=C(Cn1c(=O)c(CNc2ccccc2)cc2cc3c(cc21)OCCO3)Nc1ccccc1Cl | inconclusive: 5.62 µM [inhibitor, partial curve, poor fit] | –
37 | COc1ccc(CCNC(=O)c2ccc3nc(N4CCCCC4)sc3c2)cc1OC | inconclusive: 79.4 µM [inhibitor, single point] | –
38 | CC(=N\O)/C(CN(C)C)=N/O | inconclusive: 35.5 µM [inhibitor, single point] | –
39 | Cc1ccc(-c2nnn(CC(=O)N(CC(=O)NC3CCCC3)c3ccccc3F)n2)o1 | inconclusive: 89.1 µM [inhibitor, single point] | –
40 | CN(C(=O)COC(=O)c1cc([N+](=O)[O-])ccc1Sc1ccccc1)C1CCS(=O)(=O)C1 (centres undefined) | inconclusive: 56.2 µM [inhibitor, partial curve, poor fit] | –
41 | Cc1ccnc(NS(=O)(=O)c2ccc(NC(=O)C3CC3)cc2)n1 | inconclusive: 89.1 µM [inhibitor, single point] | –
42 | CN(C)S(=O)(=O)c1cccc(NC(=O)c2ccc(S(=O)(=O)N3CCCCC3)cc2)c1 | inconclusive: 89.1 µM [inhibitor, single point] | –
43 | COC(=O)CCC(=O)NNC(=O)c1ccc(Cl)cc1Cl | inconclusive: 39.8 µM [inhibitor, single point] | –
44 | Cc1ccc(NC(=O)CN(C)CC(=O)Nc2ccccc2C#N)cc1 | inconclusive: 3.16 µM [inhibitor, partial curve, poor fit] | –
